One molecule from publication PMC4721543, “Direct binding of hepatocyte growth factor and vascular endothelial growth factor to CD44v6” (Bioscience Reports, 2015) can be followed below.

The target of the experiment is T1, human VEGF-A165 (human, biotin in the cellular ELISA; NT-647 (NHS) in MST and in one FCS series; ATTO 647N (NHS ester) in FCS; unlabelled in FACS and pull-down).
T1 construct: also called VEGF165; VEGF165-NT647; source: bought: Peprotech
Put plainly: fluorescence correlation spectroscopy; 1-5 nM ATTO 647N-labelled growth factor with 0.1 nM to 20 μM unlabelled CD44 ectodomain; at least 3 h at room temperature; PBS with 0.05% Tween-20; 20°C; diffusion times fitted with a 1:1 binding model. The settings on record: both partners purified.

B1: human CD44s ectodomain, hexahistidine-tagged (domain or fragment)
chain: [about 200 residues not spelt out]ATRDQDTFHPSGGSHTTHGSESDGHSHGSQEGGANTTSGPIRTPQIPE
Turning to B1, the Kd (usually the concentration at which binding is half-saturated) is 1.3 ± 0.6 µM.
